Measurements published in the supplement of paper PMC12645437, “Orthogonal IMiD-Degron Pairs Induce Selective Protein Degradation in Cells” (ACS Chemical Biology, 2025).
The other results are listed elsewhere or left out.

Target: no compound (DMSO)
Assay: log2 fold change of degron read counts, EGFP-low vs EGFP+ sorted cells; higher = lower degron-EGFP level without compound (poor expression or instability)
Details: compound: DMSO control; 18 h
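Further: jurkat cells carrying a lentiviral library of mutant zinc finger degrons fused to EGFP plus mCherry, mCherry+ cells FACS sorted, degron abundance counted by next-generation sequencing.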

Row | Sequence | log2 fold change of degron read counts
1 | FCCDQCGAEFTQKGNLLRHIKL | -2.94
2 | FVCPICGHSFTQKGNLLRHIKL | 0.0164
3 | FCCNQCGHWFTQKGNLLRHIKL | 0.819
4 | FWCNQCGANFTQKGNLLRHIKL | 0.392
5 | FECDVCGAQFTQKGNLLRHIKL | -3.48
6 | FICEQCGAFFTQKGNLLRHIKL | -1.19
7 | FICPQCGAFFTQKGNLLRHIKL | 0.219
8 | FFCPQCGASFTQKGNLLRHIKL | 0.0557
9 | FSCPICGRNFTQKGNLLRHIKL | -0.528
10 | FQCNQCGRMFTQKGNLLRHIKL | -0.508
11 | FWCNQCGHQFTQKGNLLRHIKL | 0.51
12 | FTCEICGRGFTQKGNLLRHIKL | -1.99
13 | FFCEICGRRFTQKGNLLRHIKL | -1.27
14 | LGCNQCGFGCTQKGNLLRHIKL | 0.994
15 | FTCNVCGASFTQKGNLLRHIKL | -0.367
16 | FNCEVCGAFFTQKGNLLRHIKL | -0.867

Row | Sequence | log2 fold change of degron read counts
17 | FLCNICGALFTQKGNLLRHIKL | 0.478
18 | LHCNQCGFSCTQKGNLLRHIKL | 0.601
19 | FMCNQCGRQFTQKGNLLRHIKL | -0.397
20 | FTCPVCGAQFTQKGNLLRHIKL | -0.398
21 | FRCEICGHIFTQKGNLLRHIKL | -1.01
22 | FSCNQCGHPFTQKGNLLRHIKL | 0.172
23 | FVCEICGAEFTQKGNLLRHIKL | -2.34
24 | FECPICGHIFTQKGNLLRHIKL | -0.774
25 | FWCNQCGHLFTQKGNLLRHIKL | 1.91
26 | FHCEICGANFTQKGNLLRHIKL | -1.72
27 | FVCNVCGAVFTQKGNLLRHIKL | -0.964
28 | FMCPICGHQFTQKGNLLRHIKL | -0.544
29 | FMCEVCGAFFTQKGNLLRHIKL | -0.928
30 | FWCPICGANFTQKGNLLRHIKL | 0.38
31 | FFCNQCGHTFTQKGNLLRHIKL | 0.299
32 | FFCNICGAEFTQKGNLLRHIKL | -0.174
